Results as given in PubChem BioAssay AID588855 (National Center for Advancing Translational Sciences (NCATS), 2011).
In all, about 410,000 compounds went through this assay and about 5,000 (1.2%) were called active. Inconclusive means that the source gave no clear call. Such entries were picked first, then a sample of the others. The call rests on the fitted dose curve; in most records, active means well fitted inhibition curve with a large enough effect; inconclusive means small, poorly fitted or top-dose-only effect; inactive means no such curve, though single readings can be large or run the other way. Potencies beside an inconclusive call are fits to weak or partial responses and may not hold up.

Experiment: qHTS for Inhibitors of TGF-b; further: nearly all actives have a fitted effect of over 65% in size
Conditions: HepG2 CAGA-GFP TGF-b/SMAD3 reporter, GFP fluorescence, 18 h, TGF-beta stimulated, 500 pg/mL final; series mostly up to 46.1 µM
Outline: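 HEPG2 CAGA-GFP cells (1000/well, DMEM with 1% FBS) were pre-incubated 2 h at 37 degrees C, given compound by pin tool, then stimulated with TGF-beta at 500 pg/mL final for 18 h before per-cell GFP fluorescence imaging.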
Potency means the concentration at half of the fitted maximal effect; tags describe the fitted curve by direction and shape.

| SMILES | Potency |
| --- | --- |
| CCc1ccc(OCCNc2cc(N3CCNC(C)C3)ccc2[N+](=O)[O-])cc1 (centres undefined) | inconclusive: 35.5 µM [inhibitor, single point] |
| O=C(Nc1ccccc1)c1ccc(S(=O)(=O)N(CCO)CCO)cc1 | inconclusive: 0.447 µM [inhibitor, full curve] |
| COc1ccc(C(=O)Nc2nc3n(n2)C(c2ccccc2)C=C(c2ccccc2)N3)cc1 (centres undefined) | inactive |
| CC(C)OC(=O)CN1CCN(c2ccc(Cl)cc2)CC1 | inconclusive: 14.1 µM [inhibitor, partial curve, poor fit] |
| CCn1c(C)[n+](CCOCC[n+]2c(C)n(CC)c3cc(Cl)c(Cl)cc32)c2cc(Cl)c(Cl)cc21 | inconclusive: 3.55 µM [inhibitor, single point] |
| Cc1[nH]n(-c2ncc(-c3ccc(Cl)cc3)s2)c(=O)c1C(c1ccc(Cl)cc1)C(C#N)C#N (centres undefined) | inconclusive: 35.5 µM [inhibitor, partial curve, poor fit] |
| Clc1cccc(Nc2nc(-c3ccncc3)cs2)c1 | inactive |
| Nc1nnnn1/N=C/c1cc(Br)ccc1O | inactive |
| O=C1CCCN1c1ncc(S(=O)(=O)c2ccc([N+](=O)[O-])cc2)s1 | inconclusive: 1.78 µM [inhibitor, partial curve] |
| CCOC(=O)c1ccc(NC(=O)C(Cc2ccccc2)N2Cc3ccccc3C2=O)cc1 (centres undefined) | inconclusive: 15.8 µM [inhibitor, partial curve, poor fit] |
| CCOC(=O)c1ccc(NC(=O)CSc2cn(CC(=O)N3CCCC3)c3ccccc23)cc1 | inconclusive: 11.2 µM [inhibitor, partial curve, poor fit] |
| CCc1ccc(-c2cn3c(n2)sc2cc(C(=O)NCCC4=CCCCC4)ccc23)cc1 | inconclusive: 0.631 µM [inhibitor, full curve, poor fit] |
| CCCOc1ccc(C(=O)Nc2ccc3oc(-c4cccc(Cl)c4Cl)nc3c2)cc1 | inconclusive: 35.5 µM [inhibitor, single point] |
| COc1ccc(NC(=O)N2CCCC2C(=O)Nc2ccc(C)c(Cl)c2)cc1 (centres undefined) | inconclusive: 35.5 µM [inhibitor, single point] |
| Cc1ccnc2ccc(N)cc12 | inactive |
| O=c1[nH]c(C2CCCN(S(=O)(=O)c3ccccc3Cl)C2)nc2c1nnn2Cc1ccc2c(c1)OCCO2 (centres undefined) | inconclusive: 14.1 µM [inhibitor, single point] |
| c1ccc(-c2ccc(C3=Nn4c(nnc4-c4cc(-c5ccccc5)n[nH]4)SC3)cc2)cc1 | inconclusive: 35.5 µM [inhibitor, single point] |
| Cc1ccc(OCCOc2ccc(Br)cc2)c([N+](=O)[O-])n1 | inactive |
| O=C(c1ccc(Cl)cc1)C(CN1CCCCC1)c1ccccc1 (centres undefined) | active: 5.62 µM |
| CCOC(=O)C1Nc2ccccc2C2C(O)C(O)CC12 (centres undefined) | inconclusive: 35.5 µM [inhibitor, single point] |

| SMILES | Potency |
| --- | --- |
| Cc1cc(NC(=O)c2cc(-c3ccncc3)nc3ccccc23)ccc1Br | inconclusive: 35.5 µM [inhibitor, single point] |
| COc1cccc(C(=O)N2c3ccc(C)cc3C(C)(c3ccccc3)CC2(C)C)c1 (centres undefined) | inconclusive: 11.2 µM [inhibitor, single point] |
| COc1ccc(C2NC(=O)NC(C)=C2C(=O)Nc2ccccc2)cc1OC (centres undefined) | inconclusive: 6.31 µM [inhibitor, single point] |
| COc1ccc(-c2cn3nc(N4CCCC(C(=O)Nc5cccc(OC)c5)C4)sc3n2)cc1 (centres undefined) | inconclusive: 12.6 µM [inhibitor, partial curve] |
| C[C@@H]1CN([C@@H](C)CO)S(=O)(=O)c2ccc(Br)cc2O[C@H]1CN(C)C(=O)c1ccccc1F | inconclusive: 3.16 µM [inhibitor, single point] |
| C[C@@H]1CN([C@@H](C)CO)C(=O)c2cc(NS(=O)(=O)c3cccs3)ccc2O[C@H]1CN(C)Cc1ccc(C(F)(F)F)cc1 | inconclusive: 15.8 µM [inhibitor, partial curve, poor fit] |
| COc1ccc(Cc2nnc(NC(=O)Nc3ccccc3F)s2)cc1OC | inconclusive: 35.5 µM [inhibitor, single point] |
| O=c1[nH]c(=S)[nH]cc1Oc1ccccc1 | inactive |
| O=C(c1cc(COc2cccc3cnccc23)on1)N1CCCC(CCCO)C1 (centres undefined) | inactive |
| Cn1cnc(C(=O)NCc2ccc(CNC(=O)OC(C)(C)C)cc2)c1C(=O)NCc1ccc(CNC(=O)OC(C)(C)C)cc1 | inconclusive: 2.82 µM [inhibitor, partial curve, poor fit] |
| COc1ccc(NC(=O)COc2ccc(C(=O)c3ccc(F)cc3)cc2)cc1S(N)(=O)=O | inconclusive: 3.16 µM [inhibitor, single point] |
| N#Cc1ccc(CN2CCN(C(=O)c3ccc(S(=O)(=O)NCc4ccco4)cc3)CC2)cc1 | inconclusive: 15.8 µM [inhibitor, partial curve] |
| Cc1ccc(Nc2sc(C(=O)c3ccccc3)c(N)c2C(=O)Nc2ccc(Cl)cc2)cc1 | inconclusive: 28.2 µM [inhibitor, single point] |
| Cc1ccc(C)c(NC(=O)CN(C)C(=O)CC2OC(=O)c3ccccc32)c1 (centres undefined) | inconclusive: 4.47 µM [inhibitor, single point] |
| CCOc1cccc2sc(N(CCCN(C)C)C(=O)c3ccc(S(=O)(=O)N(C)c4ccccc4)cc3)nc12 | inconclusive: 17.8 µM [inhibitor, single point] |
| C[C@@H](C(=O)Nc1ccc2ccccc2c1)[C@H]1C[C@]1(C)[C@H](NC(=O)c1cnccn1)c1ccccc1 | inconclusive: 5.62 µM [inhibitor, single point] |
| c1ccc(-c2nc(NCc3cccs3)c3ccccc3n2)cc1 | inconclusive: 25.1 µM [inhibitor, single point] |
| Cc1cc(Cl)ccc1OC(C)C(=O)Nc1ccc(S(=O)(=O)N2CCOCC2)cc1 (centres undefined) | inconclusive: 20 µM [inhibitor, single point] |
| CC(NC(=O)c1ccc(C(=O)c2ccccc2)cc1)c1ccc(S(N)(=O)=O)cc1 (centres undefined) | inactive |
